# Laboratory results published in the RNAGym collection of RNA variant scans (doi:10.7554/elife.90254).
# Read counts are not given, so values of variants with three or more changes are uncertain.
# B1: LINE1-full (parent)
# chain: UACGUAGGUGGUUUUCCCCUGAUAGUGCUAAGGGGGCCUGGAAGUUUGGACUGGGCAGAGCUCAACACAGCGUGGCAAAGUGGCUGUGGCUAGACUGCCUCUCUGGAUUCCUCGUCACUCAGCAGGGCAUCUCUGAGAGAAAUGCC
# Variants of: B1
# Experiment: self-cleavage, relative activity (ratio to wild type); higher = more cleavage; in vitro, sequencing; the parent is a self-cleaving ribozyme
row,Variant,self-cleavage
1,G4C A30G U39C U87A A142G,0.37
2,G4A U20C U87C,0.44
3,U5A U14C A129U,0.44
4,C3U A30G C37G U52A A65G U102C,0.8
5,U5A U13C C84U U112C,0.23
6,U5A U46A A67U U96C A140G,0.11
7,U5A A42G C71A U104C,1.61
8,U5A U12A A69G C113U,0.44
9,U5A G93U U132C A136G A138G,0.05
10,C3U U9C A50G,0.5
11,U5A A57G U73A,0.67
12,G4A U45A U52C U119C,0.84
13,G4U U5C U26A G53A A92U U109C,0.36
14,U5A U12C G114A,1.61
15,U5A U20A U26C A59U A69G C76U U87C,0.37
16,U5C A6G U9A A59G,0
17,C3U U12C A79G,2.3
18,C3U A43U U47C A77G A129C,1.08
19,C3U A42U U115C,0.6
20,C3U U15C A65G U96A,0.32
21,C3U U62C U130C A142G,0.43
22,U5A A57G U115C,0.92
23,U5A A6G U115C,0.74
24,C3U A31G U104C,0.86

row,Variant,self-cleavage
1,U5A U52A A138G,1.36
2,C3U U29C A65G,0.25
3,C3U U12C U47A C118U,0.67
4,U5A U73C A124U,0.82
5,U5C A22C C66U,0.21
6,G4A A78G A117G,0.66
7,G4A U13C U23A A129G,1.17
8,G4A U29C G74A,1.03
9,G4A A22G A24U,0
10,U5A A42U A50G A124G A141U,0.76
11,G4A A94G U100C,0.51
12,G4A A50C U87C A94U C95U,0
13,U5A U39A U47C A57U U91A,0.2
14,G4C A50U U85C U100A,0.1
15,U5A U14C U23C A69U U130C,0.27
16,U5A A42C C146U,0.82
17,U5A A30U U132A,1.21
18,C3U A50U A69G U87C G127A,0.11
19,U5A U20A G35A A77U A140G,0.88
20,G4A A94U C123U A124G,0.32
21,C3U U45A C101U A141G,1.19
22,U5A U12C C99A,0.39
23,G4A U20C A69G A77G,0.8
24,G4A A67U U81C A107U A124G,0

row,Variant,self-cleavage
1,U5A A31U A65G G93A A121G,0
2,G4C U20A A59G U130C U132A,0
3,U5A A57G U108C,0.74
4,U5A U15C U91A U104A,0.33
5,U5A C131A A140G,0.44
6,U5A C37U U73A,1.05
7,G4A G82A U96C,0.06
8,C3U U23C A141G,0.57
9,U5A A57U U132C,0.19
10,C3U A30G U96G,0
11,G4C U45A U62C,0.08
12,U5C A22U U39C A65G,0
13,U5A U29C G41A A42G U100C,0.48
14,U5A A42G U130C,1.84
15,G4A U15C U115C,0.27
16,G4A G48A U62A C113U,0.04
17,G4A G88A A142G,0.11
18,G4A U87C U100A U130A,0.07
19,U5A A64U A65G A69G,0.25
20,G4U A22G U26C U62C U115A A136G,0.38
21,U5A U12C A30G A94U A121U A142G,0.67
22,C3U U13C C28G,1.72
23,C3U A24G U45C A65U U96G U119A,0.27
24,U5C A22U A59G,0.42

row,Variant,self-cleavage
1,U5A U12A C28U U39C A142G,1.12
2,U5C A6G U20A A67G,1.08
3,C3U U12C A30G A121G A136G,1.97
4,G4A A42G U91A A136G,1.11
5,U5A A50U C111U U143C,1.18
6,U5A A24G U39A A65G G122U,0.32
7,U5A A43G A50G U96A A121U,0.22
8,U5A U23A G35U,1.36
9,U5A U62C U85C U119C,0
10,G4U U5C A6U,1.17
11,C3U A77G U112C A140G,0.89
12,G4A U20C U47C C71U,0.67
13,C3U U108C U112A,2.12
14,U5A U85C U115C U143C,0.89
15,C3U U14C U39C U45C U112C A136G,1.84
16,C3U U15A U73A,0.37
17,G4A U9C U26A G33U A77U U112A,0.9
18,G4A A92G U100C A124G G125U,0
19,C3U G35U A142G,0.64
20,U5A U73C U96C,0.4
21,G4A A64C A107G,0.32
22,C3U U13C U73C U96C U143C,0
23,U5A U96G U134C,0.46
24,C3U A69G U108C,0.51

row,Variant,self-cleavage
1,G4C A50U A79U A129G,1.4
2,G4C A78U U109C U134A,2.3
3,G4C U73C A78U G126U,1.82
4,G4A A57U A78G G106A A138G,0.13
5,G4C A79U U108C,1.84
6,U5A U29C U45C U47C,1.84
7,C3U U13G U46C C51A A67G,0
8,U5A U20A A43G C56U A124G A136G,0.13
9,U5C A6G U13G U47C U62C,0
10,U5A U13C A31U U108C,0.86
11,C3U U9G U12C A42U A79U,0.94
12,U5A U112A U115C,1.43
13,U5A U15C U62C U81A U96A A107G,0.15
14,C3U G44U G48U A124U A140G,1.26
15,C3U U134C A142G,0.95
16,G4A U13C A92G,0
17,U5A U12G U13C C123U A129U A136G,1.18
18,G4A U45C A121G A140G,0.24
19,U5A U46C A65G,0
20,U5A G58C A129G,0.15
21,G4A U112A A140U,1.24
22,G4A G72A U81A,1.82
23,U5A U26C U52G C61U A69G A79C,0
24,C3U C37A C68U A69G U100C U115C,0.13

row,Variant,self-cleavage
1,G4U U15C U20C,1.02
2,C3U U45C U52C,2.7
3,U5A G70U U143A,0.06
4,C3U C66U U132C,0.13
5,G4U A78G A140G,0.95
6,C3U U13C A43G,0.99
7,U5A U47A U109A,0.59
8,C3U U15C U62C A64G,0.2
9,G4A G7U G139A,1.07
10,U5A A65G A94G,0
11,U5A U73C A77U,0.94
12,G4A A42U U52C C68U U87C,0.06
13,G4A G25A A50G U109C U112C U130C,2.3
14,G4C C37G U115A,1.23
15,C3U U5C G58A,0.15
16,C3U U39C G74C,0.67
17,G4A A67C A77U U108C,0.12
18,C3U U23C U73A,1.15
19,U5A U132C A141G,1.24
20,G4A U39C U52A,0.74
21,U5A A42G A142G,1.35
22,G4C U15C U26C A142G,0.54
23,G4A A138U A142G U143A,0.75
24,C3U A79G U85C,0.25

row,Variant,self-cleavage
1,C3U U52A A69U,0.12
2,C3U A50G U96C A136U,0.35
3,U5A G34A A140G,0.54
4,U5A A57U A69U U134A,0
5,U5A A6G A43G U91A A136G,0.79
6,G4U A42G A92U U112C,2.36
7,C3U A77U A117U A141G,1.25
8,G4C U13A U15A U45C,0.46
9,G4U A67U A92U U102C U132C,0.17
10,C3U U119C A129G,0
11,G4A G32A A42G U46C U130C,1.4
12,U5A U9C U39A A43G U47A,0.37
13,U5A G25A U39A,1.04
14,C3U A69G A142G,1.09
15,C3U U12C U73A,2.25
16,U5A A140G A141C,0.83
17,U5A C18U C68U,0.34
18,C3U U45A A67U G88U U104A,0.05
19,C3U U9C C37A U87C,0.37
20,C3U U14C U46C,0.63
21,C3U U73A A78G A129U,0.29
22,C3U U14A A43U U112C,0.32
23,U5A U9C G89U A141U,0.17
